Data as given in the supplement of paper PMC11417369.
± gives the standard deviation of the averaged measurements. Some of the results follow.

System: PfAP2-I AP2 domain 3 (GST-tagged)
Test: gcPBM binding intensity (ln(normalized median fluorescence intensity)); higher = stronger DNA binding
Outline: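 Plasmodium falciparum DNA-binding domains carrying a GST tag were expressed in E. coli and applied for 1 h, at about 25 μg on average, to an Agilent 4 × 180k array. The array held primer-extended double-stranded 36-bp intergenic genomic probes together with negative controls, and binding took place in 1× PBS with 1% milk, 0.2 mg/ml BSA, 0.5% salmon testes DNA and 0.03% Triton X-100. An Alexa488 anti-GST antibody detected bound protein, and the array was scanned at 488 nm. Binding intensity is taken as the highest Masliner-normalised natural-log median intensity across replicate spots of either probe orientation.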

Point of comparison: “ACACTATCTTAGATTTGTACATATTTATATATGTAT [XGTACX_site8739]”, “gcPBM binding intensity (ln)” value 7.64 ± 0.56. Against it:
- AACATATTATCTTGTGAAAATAATATAAGTCACATT [TGCATGCA_negctrl_site339] — within error, 7.38 ± 0.63
- ATATATATATATATTTGTACAGAAAATATTTTAATA [XGTACX_site3706] — higher, 9.09 ± 0.73
- AAAAAATAATTGAAGTGTACGTACAATGATTTTACT [XGTACX_site7663] — within error, 8 ± 0.57
- GTATTCTACAGACACATACACACATATATATATATA [CACACA_site3427] — higher, 9.42 ± 0.54
- AAGAAAAACTTTACGTGTACCAAACATCCTGCCGAC [XGTACX_site4895] — within error, 7.79 ± 0.73
- TAAACCTTAAAATATTTCTCATGTTTAACTTATATT [GTGCAC_negctrl_site233] — within error, 7.58 ± 0.59
- TTATAATATTGTGGTATACACACCTTACAAAAAGGT [CACACA_site2878] — within error, 7.96 ± 0.67
- GGGAGAAATTTATACATACACACATATATATATTAT [CACACA_site4039] — within error, 7.81 ± 0.48
- TACAATGTGGATAATTGTACAAAACCGATAAGAGGG [XGTACX_site6453] — within error, 8.53 ± 0.52
- TTATATACCCTAATATGTTTTATTATTATTATATAT [TGCATGCA_negctrl_site6] — within error, 7.7 ± 0.63
- TATATTCTACAAGAATTATGAATTGTCAGACCAAAT [CACACA_negctrl_site1101] — within error, 7.45 ± 0.66
- TTTATTTTCATATGAACACACATATATATATTATAA [CACACA_site2369] — within error, 8.22 ± 0.31
- TGTTCTGAACGGTTCATGCACTTTTTTTTGTTAATT — higher, 8.82 ± 0.42
- CTGTTTTTGTTTTAAAGTACATTGTTCAATATACAT [XGTACX_site5288] — within error, 8.15 ± 0.22
- ATATAAATAATATAAATACACACTAAAAAAAATATA [CACACA_site542] — within error, 7.71 ± 0.56
- AGGGAATAATATTAATGTACATATATGAACTTGTTT [XGTACX_site6089] — within error, 7.82 ± 0.57
- TATAAAAAGGAAAAATAAAAATAAAAATAAAAATTA [CACACA_negctrl_site1822] — within error, 7.22 ± 0.7
- TCTTTTAAAAATTAAGTGCATGTCCTTATAACAAAA — within error, 8.43 ± 0.32
- AAAAAAATAATGTACACACACATATCTGTTTATATA [CACACA_site4270] — within error, 7.88 ± 0.46
- ATATTTATATATATATGTACATATGTGTGTTTTTAT [XGTACX_site3956] — within error, 7.82 ± 0.35
- TCATAAACATTATGCACACAAAAATAAAAAAAAATA [CACACA_site1115] — higher, 9.8 ± 0.56
- ATATATAACTTTTCTTAACACACAAAAAACAAAAAT [CACACA_site8748] — within error, 8.09 ± 0.59
- ATAAAATATATATGCACACACATATATATTTCATAC [CACACA_site3547] — higher, 9.5 ± 0.14
- ACATAAAATAAATATACACACATATGTATATATTAT [CACACA_site3041] — within error, 7.69 ± 0.33
- AAAAGAATTTAGAAGGCATGCACTTAAACATGGATA [TGCATGCA_site699] — within error, 8.01 ± 0.65
- ATATATATATATATGTGTACTTATAAATATATCTGT [XGTACX_site4337] — higher, 9.32 ± 0.42
- AATATTTAAAACAAATCACACATGTATCCATAAATG [CACACA_site5308] — within error, 7.5 ± 0.65
- ATATCCCATATGTAATGTACTTACACTTTCTTAATT [XGTACX_site7020] — within error, 7.98 ± 0.83
- TAAATATTTTATTGTACACACTTTTTATGAATGATG [CACACA_site5694] — within error, 8.12 ± 0.29
- TGCTTATCCATTTCTACACACAAAAAAAAAAAAAAA [CACACA_site37] — within error, 8.11 ± 0.47
- AAATGGGTTTATTTAACACACAAAAGAAAAAATATA [CACACA_site1938] — within error, 7.82 ± 0.63
- TATATATATTTATGTTGTACAAAATATTATTACGTA [XGTACX_site5384] — within error, 7.91 ± 0.48
- TTATATTATAACAAACGTACGAATTTTATACAAATA [XGTACX_site7258] — within error, 7.7 ± 0.42
- TATTTTTACAATGGTAGTACCATTTTGAATCTTTGT [XGTACX_site6092] — within error, 7.62 ± 0.49
- CACCCGCACGTATTTGCACACATTGCCACGTAATTA [CACACA_site5786] — higher, 10.2 ± 0.23
- TCGGTATCTGTTCAAAGTACACATTTGTATACAAAA [XGTACX_site1890] — within error, 7.97 ± 0.34
- TATATAACATATGGGACACACATGCAACTGTTATAT [CACACA_site3792] — within error, 7.99 ± 0.71
- ATGTGATGTTATATATGTACTTATTTTTTAATAAGG [XGTACX_site1786] — within error, 8.04 ± 0.25
- AAAAATATTATGATGTTTATTAGAAAGGAAAAAACT [CACACA_negctrl_site1417] — within error, 7.74 ± 0.69
- TTTTTATATTATTTAATGAGAAATAATTATAAACAA [CACACA_negctrl_site553] — within error, 7.49 ± 0.38
- GTATATATATATATATGTACATATTTAGAGTTCTGT [XGTACX_site5357] — within error, 7.87 ± 0.41
- ATATTTACCATTGTATGTACATATATAAAATATATC [XGTACX_site3237] — within error, 7.86 ± 0.57
- AACATATACACGAACACACACACATATATATATATA [CACACA_site502] — higher, 9.12 ± 0.16
- TAAAGAAAAAAATGTTGTACTTTATGAAACATATTT [XGTACX_site412] — within error, 7.83 ± 0.36
- AAAACAAATGAGTACACACACATAAAAATTGAAAAT [CACACA_site199] — within error, 8.21 ± 0.071
- CGTAGCCCCACTAACACACACAAATATACTCAATCA [CACACA_site5587] — within error, 7.93 ± 0.43
- AGTTTTTATTAAAACAAAATTTAATTATAACGTTGA [XGTACX_negctrl_site298] — within error, 7.25 ± 0.49
- TTATATGTATGAACAAGTACATGCTATAATTATAAA [XGTACX_site1399] — within error, 7.7 ± 0.35
- TATATATATATATACACACATACATATATATATTTG [CACACA_site857] — higher, 9.44 ± 0.52
- ATATATATATATATATGTACATATATACATATATGT [XGTACX_site1521] — higher, 9.47 ± 0.63
- AATAACTATATATGTGTGCACAAAAATTTGACATAA — higher, 10.7 ± 0.049
- AGTAGTCTGGAGAAGAGTACATAGTTTCTGGTAGCT [XGTACX_site2023] — the same, 7.64 ± 0.71
- TTTTTTTTTTTTTGATGTACAATAATTAAAGAGTAA [XGTACX_site8403] — within error, 8.14 ± 0.57
- TTTTTTTTTTCTTAGGTGCAAAAAATAAGTATATAT [GTGCAC_site9394] — higher, 10.6 ± 0.59
- AAAAAAAAAAGAACCCGTACATAAATAATATATATA [XGTACX_site164] — within error, 8.4 ± 0.76
- AAAAAAAAAAAAGAAACACACACATTTGTATATAAT [CACACA_site8648] — within error, 7.6 ± 0.58
- GAAACATAAAAATATATTGAAATAGTATCATGGGTA [CACACA_negctrl_site352] — within error, 7.8 ± 0.57
- TATAGTTATATTAGAAGTACTTCATTTTAACATATT [XGTACX_site7101] — within error, 7.51 ± 0.2
- TTTTTTTTGTATTAATGTACATATAACTTTTTTTTT [XGTACX_site7903] — within error, 7.7 ± 0.49
- TAAAAAATAAAATAATGTACATATGAATTATATATT [XGTACX_site8398] — within error, 7.57 ± 0.53
- TTAATTACATGTTATTGTACGTATTTTCTATCTATC [XGTACX_site844] — within error, 7.97 ± 0.42
- AAATTCTTAACCCAACGTACATATAATAAATTCTTA [XGTACX_site8538] — within error, 7.78 ± 0.46
- TAAACCAAACAATTATGTATAAGATGTATATATATA [GTGCAC_negctrl_site438] — higher, 8.88 ± 0.057
- AAAAAGAAGAATATATGTACACAAAATTTATGAGTT [XGTACX_site8609] — within error, 7.87 ± 0.56
- AAAAAAAAAAATATATTATTTTACTTGTTTATTTTA [CACACA_negctrl_site1447] — within error, 7.11 ± 0.31
- CATTATAAGAAACACACACACATATATATATATATA [CACACA_site1051] — higher, 9.4 ± 0.29
- ATTCCCTTAAGAAACTGTACAAAACTTTCTTCGATT [XGTACX_site775] — within error, 7.75 ± 0.65
- GTGTGTGTATATATTTGTACATATATTTAAACATAT [XGTACX_site1074] — higher, 9.08 ± 0.28
- TATACATAAATTATATGTACTGAAAATACATAATTA [XGTACX_site3626] — within error, 7.32 ± 0.16
- GGTAGGTGGATATATACACACATATATTATAGATAT [CACACA_site7021] — within error, 8.29 ± 0.23
- ATCGAGAAAAATAAAATAATACAATTTCTTTAAATA [XGTACX_negctrl_site162] — within error, 7.12 ± 0.56
- CACAGATATATACATACACACATATATACACATATA [CACACA_site6323] — within error, 8 ± 0.41
- AAATGCGCCATGTGTACACATATATATATATATATA [CACACA_site4649] — higher, 9.5 ± 0.51
- TTAAATAAGTTCTTCACACATATATATATATATATA [CACACA_site4742] — higher, 9.35 ± 0.49
- TACATATATAAAAATTGTACACTTCATAAGAAAAAA [XGTACX_site4347] — within error, 7.89 ± 0.59
- AAAATTTTTTAACACTGTACTTGTAATATTAAAACT [XGTACX_site8369] — within error, 8.06 ± 0.4
- AAGGATTACAAAAAAAGTACAAATGGATTTTTTCCC [XGTACX_site8905] — within error, 7.87 ± 0.53
- AAAAAAATTCTTGGCGCACACACTTTAAAAATTAAA [CACACA_site597] — within error, 8.4 ± 0.3
- CTTACAAATAAACAACGTACTTATTCGAATTATGCT [XGTACX_site2431] — within error, 7.65 ± 0.52
- CATACAGACGAACACACACACATATAAATATAAATA [CACACA_site6443] — within error, 7.95 ± 0.18
- TATAATAAAATTGGTAGTACATTAATTTATGTATAG [XGTACX_site3059] — within error, 7.74 ± 0.45
- TATTATTTTTTTTTTTGTACATATATGTATATATAT [XGTACX_site8471] — within error, 8.26 ± 0.56
- AACCACATGGTGTAATGTACATTACCTTAACAATAA [XGTACX_site3055] — within error, 8.1 ± 0.83
- AAATATTATATATATACACACACACCGGCATGCACA [CACACA_site7916] — within error, 8.19 ± 0.35
- TTTAAACTAGAACAAGTGCAGATATGTATAATAATA — higher, 8.95 ± 0.26
- TTTTATTTTGGAACGTGTACATATAATTATTTATTG [XGTACX_site8094] — within error, 7.99 ± 0.47
- TATTTTTAGAAAATAAAGAAGGAGAATTGAAAATAT [CACACA_negctrl_site361] — within error, 7.87 ± 0.67
- AAGAAAAGATATATATATAAATATATATATATATAT [TGCATGCA_negctrl_site353] — higher, 9.24 ± 0.41
